The results in this text go back to publication PMC9911399, “Two distinct binding modes provide the RNA-binding protein RbFox with extraordinary sequence specificity”.

Residue numbers refer to the chain shown, from its start. This is one part of the list.

T1: RBFOX1 RRM RbFoxmut (Fox-RRM*) (Homo sapiens, UniProt Q9NWB1 109-208, R118D;E147R;N151S;E152T)
T1 sequence: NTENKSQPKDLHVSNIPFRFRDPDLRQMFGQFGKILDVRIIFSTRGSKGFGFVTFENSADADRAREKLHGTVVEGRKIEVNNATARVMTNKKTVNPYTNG

B1: UCAGACG (DNA:RNA)
RNA: GGGAGACCGGAAUUCAGAUUGUCCUCAGACGUUAAAUCCCGUCGUAGCCACCA
DNA 1: CAATCTGAATTCCGGTCTCCC
DNA 2: TGGTGGCTACGACGGGATT
B2: AAACUCC (DNA:RNA)
RNA: B1 RNA with U25A, C26A, G28C, A29U, G31C
DNA 1: CAATCTGAATTCCGGTCTCCC
DNA 2: TGGTGGCTACGACGGGATT
B3: GGACUCU (DNA:RNA)
RNA: B1 RNA with U25G, C26G, G28C, A29U, G31U
DNA 1: CAATCTGAATTCCGGTCTCCC
DNA 2: TGGTGGCTACGACGGGATT
B4: CAGGUAC (DNA:RNA)
RNA: B1 RNA with U25C, C26A, A27G, A29U, C30A, G31C
DNA 1: CAATCTGAATTCCGGTCTCCC
DNA 2: TGGTGGCTACGACGGGATT
B5: CUCAAUA (DNA:RNA)
RNA: B1 RNA with U25C, C26U, A27C, G28A, C30U, G31A
DNA 1: CAATCTGAATTCCGGTCTCCC
DNA 2: TGGTGGCTACGACGGGATT
B6: AAACCGC (DNA:RNA)
RNA: B1 RNA with U25A, C26A, G28C, A29C, C30G, G31C
DNA 1: CAATCTGAATTCCGGTCTCCC
DNA 2: TGGTGGCTACGACGGGATT
B7: GAACCAC (DNA:RNA)
RNA: B1 RNA with U25G, C26A, G28C, A29C, C30A, G31C
DNA 1: CAATCTGAATTCCGGTCTCCC
DNA 2: TGGTGGCTACGACGGGATT
B8: GUAUGCG (DNA:RNA)
RNA: B1 RNA with U25G, C26U, G28U, A29G
DNA 1: CAATCTGAATTCCGGTCTCCC
DNA 2: TGGTGGCTACGACGGGATT
B9: CUCGAUU (DNA:RNA)
RNA: B1 RNA with U25C, C26U, A27C, C30U, G31U
DNA 1: CAATCTGAATTCCGGTCTCCC
DNA 2: TGGTGGCTACGACGGGATT
B10: UCGUAUC (DNA:RNA)
RNA: B1 RNA with A27G, G28U, C30U, G31C
DNA 1: CAATCTGAATTCCGGTCTCCC
DNA 2: TGGTGGCTACGACGGGATT
B11: GUCUGCU (DNA:RNA)
RNA: B1 RNA with U25G, C26U, A27C, G28U, A29G, G31U
DNA 1: CAATCTGAATTCCGGTCTCCC
DNA 2: TGGTGGCTACGACGGGATT
B12: GGAUGAA (DNA:RNA)
RNA: B1 RNA with U25G, C26G, G28U, A29G, C30A, G31A
DNA 1: CAATCTGAATTCCGGTCTCCC
DNA 2: TGGTGGCTACGACGGGATT
B13: UCUUGUC (DNA:RNA)
RNA: B1 RNA with A27U, G28U, A29G, C30U, G31C
DNA 1: CAATCTGAATTCCGGTCTCCC
DNA 2: TGGTGGCTACGACGGGATT
B14: UGUGGAA (DNA:RNA)
RNA: B1 RNA with C26G, A27U, A29G, C30A, G31A
DNA 1: CAATCTGAATTCCGGTCTCCC
DNA 2: TGGTGGCTACGACGGGATT
B15: GGAGCAU (DNA:RNA)
RNA: B1 RNA with U25G, C26G, A29C, C30A, G31U
DNA 1: CAATCTGAATTCCGGTCTCCC
DNA 2: TGGTGGCTACGACGGGATT
B16: GCUAUAA (DNA:RNA)
RNA: B1 RNA with U25G, A27U, G28A, A29U, C30A, G31A
DNA 1: CAATCTGAATTCCGGTCTCCC
DNA 2: TGGTGGCTACGACGGGATT
B17: UUCUUUA (DNA:RNA)
RNA: B1 RNA with C26U, A27C, G28U, A29U, C30U, G31A
DNA 1: CAATCTGAATTCCGGTCTCCC
DNA 2: TGGTGGCTACGACGGGATT
B18: CCUUCUA (DNA:RNA)
RNA: B1 RNA with U25C, A27U, G28U, A29C, C30U, G31A
DNA 1: CAATCTGAATTCCGGTCTCCC
DNA 2: TGGTGGCTACGACGGGATT
B19: CUCUUUA (DNA:RNA)
RNA: GGGAGACCGGAAUUCAGAUUGUCCCUCUUUAUUAAAUCCCGUCGUAGCCACCA
DNA 1: CAATCTGAATTCCGGTCTCCC
DNA 2: TGGTGGCTACGACGGGATT
B20: GUUAUAU (DNA:RNA)
RNA: B19 RNA with C25G, C27U, U28A, U30A, A31U
DNA 1: CAATCTGAATTCCGGTCTCCC
DNA 2: TGGTGGCTACGACGGGATT
B21: CGUCAGU (DNA:RNA)
RNA: B19 RNA with U26G, C27U, U28C, U29A, U30G, A31U
DNA 1: CAATCTGAATTCCGGTCTCCC
DNA 2: TGGTGGCTACGACGGGATT
B22: CACCCGC (DNA:RNA)
RNA: B19 RNA with U26A, U28C, U29C, U30G, A31C
DNA 1: CAATCTGAATTCCGGTCTCCC
DNA 2: TGGTGGCTACGACGGGATT
B23: UAUCAUG (DNA:RNA)
RNA: B1 RNA with C26A, A27U, G28C, C30U
DNA 1: CAATCTGAATTCCGGTCTCCC
DNA 2: TGGTGGCTACGACGGGATT
B24: GUGGAGU (DNA:RNA)
RNA: B1 RNA with U25G, C26U, A27G, C30G, G31U
DNA 1: CAATCTGAATTCCGGTCTCCC
DNA 2: TGGTGGCTACGACGGGATT
B25: GGGGAAA (DNA:RNA)
RNA: B1 RNA with U25G, C26G, A27G, C30A, G31A
DNA 1: CAATCTGAATTCCGGTCTCCC
DNA 2: TGGTGGCTACGACGGGATT
B26: GGACUUA (DNA:RNA)
RNA: B19 RNA with C25G, U26G, C27A, U28C
DNA 1: CAATCTGAATTCCGGTCTCCC
DNA 2: TGGTGGCTACGACGGGATT
B27: UCUACCC (DNA:RNA)
RNA: B1 RNA with A27U, G28A, A29C, G31C
DNA 1: CAATCTGAATTCCGGTCTCCC
DNA 2: TGGTGGCTACGACGGGATT
B28: CACUCGA (DNA:RNA)
RNA: B19 RNA with U26A, U29C, U30G
DNA 1: CAATCTGAATTCCGGTCTCCC
DNA 2: TGGTGGCTACGACGGGATT
B29: CCACGAU (DNA:RNA)
RNA: B1 RNA with U25C, G28C, A29G, C30A, G31U
DNA 1: CAATCTGAATTCCGGTCTCCC
DNA 2: TGGTGGCTACGACGGGATT
B30: GUACUUA (DNA:RNA)
RNA: B19 RNA with C25G, C27A, U28C
DNA 1: CAATCTGAATTCCGGTCTCCC
DNA 2: TGGTGGCTACGACGGGATT
B31: CCCUCUC (DNA:RNA)
RNA: B19 RNA with U26C, U29C, A31C
DNA 1: CAATCTGAATTCCGGTCTCCC
DNA 2: TGGTGGCTACGACGGGATT

This assay has as its target T1, RBFOX1 RRM RbFoxmut (Fox-RRM*). As to the kind of experiment: EMSA; HiTS-Eq, 1 nM pool, 10 min; buffer printed only for the single-RNA assays: 10 mM Tris pH 7.5, 150 mM NaCl, 3.4 mM EDTA, 0.001% NP-40, 30 C. Conditions: tags: His6 N-terminal (pET28a); label: 5' 32P. Summed up: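 A pool of RNA with 7 randomized nucleotides, 5′-radiolabelled and with DNA-annealed flanks, was equilibrated at 1 nM for 10 min in 50 µL with purified RbFox RRM, wild type or mutant, across increasing protein concentrations. Free RNA was separated by 8% native PAGE, excised, reverse-transcribed, barcoded by PCR and sequenced. Relative association constants were obtained from read-count changes of each RNA species versus the control reaction and normalised to the cognate motif.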
For the molecule B1, the binding signal is 0.103 KA relative to UGCAUGU.

For B2, the binding signal is 0.0469 KA relative to UGCAUGU. As for B3, the figure is 0.0789 KA relative to UGCAUGU. In the case of B4, the binding signal is 0.122 KA relative to UGCAUGU. As for B5, the binding signal is 0.0933 KA relative to UGCAUGU. The result for B6 reads 0.0847 KA relative to UGCAUGU; that for B7, 0.109 KA relative to UGCAUGU; that for B8, 0.468 KA relative to UGCAUGU. The result for B9 reads 0.0745 KA relative to UGCAUGU; that for B10, 0.192 KA relative to UGCAUGU; that for B11, 0.101 KA relative to UGCAUGU.

On to B12, for which the binding signal was 0.178 KA relative to UGCAUGU. Take B13: the binding signal is 0.297 KA relative to UGCAUGU. On to B14, for which the binding signal was 0.118 KA relative to UGCAUGU. B15: the binding signal was 0.0911 KA relative to UGCAUGU. With B16, the binding signal is 0.114 KA relative to UGCAUGU.

B17: the binding signal was 0.118 KA relative to UGCAUGU. As to B18, the binding signal was 0.0885 KA relative to UGCAUGU. As for B19, the figure is 0.113 KA relative to UGCAUGU; as for B20, 0.118 KA relative to UGCAUGU; as for B21, 0.112 KA relative to UGCAUGU. The result for B22 reads 0.0852 KA relative to UGCAUGU. For the molecule B23, the binding signal was 0.116 KA relative to UGCAUGU.

Turning to B24, the binding signal was 0.16 KA relative to UGCAUGU. Turning to B25, the binding signal is 0.0862 KA relative to UGCAUGU.

In the case of B26, the binding signal is 0.0786 KA relative to UGCAUGU. The result for B27 reads 0.0616 KA relative to UGCAUGU; that for B28, 0.131 KA relative to UGCAUGU; that for B29, 0.0715 KA relative to UGCAUGU. As for B30, the figure is 0.13 KA relative to UGCAUGU; as for B31, 0.0644 KA relative to UGCAUGU.
